Measured values: the supplement of paper PMC11417369
The list shows a part of the results.

Each sequence was assayed on PF3D7_0420300 AP2 domain 1 (GST-tagged) (assay: gcPBM binding intensity (ln(normalized median fluorescence intensity)); higher = stronger DNA binding).
Outline: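 GST-fused DNA-binding domains of P. falciparum, expressed in E. coli, were applied at about 25 μg on average for 1 h to an Agilent 4 × 180k array of primer-extended double-stranded 36-bp intergenic genomic probes and negative controls. Binding intensity is the highest Masliner-normalised natural-log median intensity across replicate spots of either probe orientation, measured with Alexa488 anti-GST antibody and a 488 nm scan.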
“TATTTTTAAAAGTTAACAGAAAAAATATAAATAAAT [GTGCAC_negctrl_site295]” was tested, and the “gcPBM binding intensity (ln)” value was 9.17.
With “TACCATAATCAATGCACACATAACAAAATATTATTA [CACACA_site2722]” the “gcPBM binding intensity (ln)” value was 9.48.
For “TGTAATAAAATAATTAGTACACATATATGTATATTT [XGTACX_site5896]”, the “gcPBM binding intensity (ln)” value was 9.22.
“TTTTCCCTTTTTTCCGCACACAATAAAATAAATAAA [CACACA_site2807]” was tested, and the “gcPBM binding intensity (ln)” value was 9.4.
For “ATATATATATAATGTTGTACGTTTTATTCTCCCATT [XGTACX_site8071]”, the “gcPBM binding intensity (ln)” value was 9.5.
“TTTATCATGAACAGAAGTACATTTATATCAATGTCT [XGTACX_site6470]” was tested, and the “gcPBM binding intensity (ln)” value was 9.1.
“ATATATATATATTTTACACACAATGGAGAAAAAAAT [CACACA_site644]” was tested, and the “gcPBM binding intensity (ln)” value was 9.61.
For “TAAAAAAGAAAAAGAGCACACAAAAATATTTAACCT [CACACA_site8885]”, the “gcPBM binding intensity (ln)” value was 9.74.
For “TATATATTTATATATTGTACACTCTTATGTAGTGTA [XGTACX_site210]”, the “gcPBM binding intensity (ln)” value was 8.95.
In the case of “TTACATATTTTCATTTGTACATATTCATTTTTTTTC [XGTACX_site6988]”, the “gcPBM binding intensity (ln)” value is reported as 9.35.
AAATAACCCACGTGCATGCACTTCAATAACTGAACT was tested, and the “gcPBM binding intensity (ln)” value was 9.59.
With “ATGTCAGGGAAAAAAACACACAAGAGTATGATATGT [CACACA_site2180]” the “gcPBM binding intensity (ln)” value was 9.53.
For “ATTTTTATATTTAATACACACATAAAATCATACCAT [CACACA_site23]”, the “gcPBM binding intensity (ln)” value was 9.48.
For “AAAAAAATAATATAATATTAAATCTTAGTTAATAAA [GTGCAC_negctrl_site658]”, the “gcPBM binding intensity (ln)” value was 8.95.
For “AAAAAAAAAAAAAAAAAAACTAATATAATAAAAATA [TGCATGCA_negctrl_site150]”, the “gcPBM binding intensity (ln)” value was 9.
With “TATGCATATACACAAGCACACATATATATATATATA [CACACA_site8266]” the “gcPBM binding intensity (ln)” value was 9.19.
In the case of “TTTTTTTTTTTTTTTTCTTTTTTTTTTTTAAATAAG [XGTACX_negctrl_site418]”, the “gcPBM binding intensity (ln)” value is reported as 8.58.
In the case of “TTTTTTTTTTTTTACACACCCAAATCACATACATAT [CACACA_site6089]”, the “gcPBM binding intensity (ln)” value is reported as 9.29.
With “AACATCTTATCATCATGTACGAAGCAGTTTTATAAG [XGTACX_site2490]” the “gcPBM binding intensity (ln)” value was 9.17.
For “TATAATAAATATACTGGTACACAAATATATATATTT [XGTACX_site7741]”, the “gcPBM binding intensity (ln)” value was 9.33.
For “ATATTATATTTACATAGTACACTATATGTATATATA [XGTACX_site2101]”, the “gcPBM binding intensity (ln)” value was 9.25.
In the case of “TGTAATTTTTTACGTTGTACATATATTAACAATATA [XGTACX_site3991]”, the “gcPBM binding intensity (ln)” value is reported as 9.2.
With “ACATTGAATAAATAATGTACATATATAATATATATT [XGTACX_site95]” the “gcPBM binding intensity (ln)” value was 9.17.
“AAATTAAATGTAAGCACACATAAATTATACGCATAT [CACACA_site3335]” was tested, and the “gcPBM binding intensity (ln)” value was 9.47.
In the case of “TTGCAGTATTTCGGAACACACAAACATAAATATGTA [CACACA_site5307]”, the “gcPBM binding intensity (ln)” value is reported as 9.28.
“AAATATTATTCATTTTGTACGTATAATTTTTAATGA [XGTACX_site3509]” was tested, and the “gcPBM binding intensity (ln)” value was 9.18.
For “GATCTTTCACATATATATATAAAGGATATTATGGTA [CACACA_negctrl_site522]”, the “gcPBM binding intensity (ln)” value was 9.18.
With “TATAATAATCCACAAGCACACACACCCACATATATA [CACACA_site8343]” the “gcPBM binding intensity (ln)” value was 9.93.
With “AGTAGTCTGGAGAAAAGTACACAGTATCTGGTAGCT [XGTACX_site2544]” the “gcPBM binding intensity (ln)” value was 9.14.
“ATTATATTATATTATACATGCATAATATTATATAAA [TGCATGCA_site647]” was tested, and the “gcPBM binding intensity (ln)” value was 9.17.
“TTATTACACAAATGGTGTACTTTTGAGGAACCAAAA [XGTACX_site4279]” was tested, and the “gcPBM binding intensity (ln)” value was 8.94.
“AATATATACATACATACATGCACATATATATATATA [TGCATGCA_site393]” was tested, and the “gcPBM binding intensity (ln)” value was 9.36.
For “AAATAGTTGTTATGGGTGCAAACCACATATATATAA [GTGCAC_site9428]”, the “gcPBM binding intensity (ln)” value was 9.05.
“AGGCCTTTTAGTATTTCACACACGTAAATGTGTATA [CACACA_site8284]” was tested, and the “gcPBM binding intensity (ln)” value was 9.58.
In the case of “ATTTGTTTAAGTCACGAACACACATATATCATCAAT [CACACA_site985]”, the “gcPBM binding intensity (ln)” value is reported as 9.41.
For “ATTATTTACCACAACACACAAATATTTACCAATCAT [CACACA_site5472]”, the “gcPBM binding intensity (ln)” value was 9.68.
For “AATATAATATATTGCACACAAAAAGTGAATTATTCT [CACACA_site1684]”, the “gcPBM binding intensity (ln)” value was 9.39.
For “GTTTATTAGGAATTATGTACACAGTTTTATAAAGAA [XGTACX_site2994]”, the “gcPBM binding intensity (ln)” value was 9.14.
For “TCATTATATTATTCTTGTACTTATATCCTTTTTTGA [XGTACX_site5320]”, the “gcPBM binding intensity (ln)” value was 9.42.
With “TAAAAGTTCACCTGTACACACATATATATCTGTACA [CACACA_site5019]” the “gcPBM binding intensity (ln)” value was 9.56.
With CAAAATATTATCATGATGCACTTTACACTCTAAGGT the “gcPBM binding intensity (ln)” value was 9.17.
With “AAAAAATAAAAGTGGGGTACATGTCATTATGTGCAT [XGTACX_site3753]” the “gcPBM binding intensity (ln)” value was 9.68.
With “TTTTCATTCTTTTCCTTTGATTTACAATAGTATATT [GTGCAC_negctrl_site687]” the “gcPBM binding intensity (ln)” value was 9.33.
“ATATTATGTCTACATAAACACACATATATATAAAAA [CACACA_site7976]” was tested, and the “gcPBM binding intensity (ln)” value was 9.38.
For “AATAGTTATAAATATAAATATATATATATATATATA [CACACA_negctrl_site414]”, the “gcPBM binding intensity (ln)” value was 8.96.
For “TTACCATAAGTATGTGGTACACTTTAAATGAAGATA [XGTACX_site6972]”, the “gcPBM binding intensity (ln)” value was 8.88.
“AATAAATATTCATTTTGTACATATTTTTCGTATATG [XGTACX_site6104]” was tested, and the “gcPBM binding intensity (ln)” value was 9.26.
With “TTAACATCAAAATATGCACACAAACAATTAGCGGTA [CACACA_site8801]” the “gcPBM binding intensity (ln)” value was 9.63.
“TATATATATAAATACACACACACCCTAAAAATATAT [CACACA_site4970]” was tested, and the “gcPBM binding intensity (ln)” value was 10.1.
With “TCATATTTTACATATGCATGTTAATAATACAAACAT [TGCATGCA_site994]” the “gcPBM binding intensity (ln)” value was 9.01.
For “TTTTTTTCGTATATTACACACTATAAATAGAAATTA [CACACA_site6278]”, the “gcPBM binding intensity (ln)” value was 9.14.
For “ATTTATTTATGTATTTGTACGTATATATTTATGCAT [XGTACX_site5218]”, the “gcPBM binding intensity (ln)” value was 9.52.
“GTATAACAACTGATAAAAGAAAAAAAATTTATTATT [CACACA_negctrl_site377]” was tested, and the “gcPBM binding intensity (ln)” value was 9.07.
With “ATAATATTTTTAAACTGTACTTTTATAAACACTTAT [XGTACX_site2625]” the “gcPBM binding intensity (ln)” value was 9.28.
For “ATTTTAAATATTTGTGGTACCCCTTTTTTGTAACAA [XGTACX_site5590]”, the “gcPBM binding intensity (ln)” value was 9.27.
With “CAAAATTGAAGGAACACACATACATATATATATATG [CACACA_site179]” the “gcPBM binding intensity (ln)” value was 9.6.
In the case of “TAAAAAAGAACAGAAACACACAAATAAAATAAAATT [CACACA_site1758]”, the “gcPBM binding intensity (ln)” value is reported as 10.
